The target of assay [1] is T1, PAR1-Venus (mouse) (UniProt P30558).
T1 sequence: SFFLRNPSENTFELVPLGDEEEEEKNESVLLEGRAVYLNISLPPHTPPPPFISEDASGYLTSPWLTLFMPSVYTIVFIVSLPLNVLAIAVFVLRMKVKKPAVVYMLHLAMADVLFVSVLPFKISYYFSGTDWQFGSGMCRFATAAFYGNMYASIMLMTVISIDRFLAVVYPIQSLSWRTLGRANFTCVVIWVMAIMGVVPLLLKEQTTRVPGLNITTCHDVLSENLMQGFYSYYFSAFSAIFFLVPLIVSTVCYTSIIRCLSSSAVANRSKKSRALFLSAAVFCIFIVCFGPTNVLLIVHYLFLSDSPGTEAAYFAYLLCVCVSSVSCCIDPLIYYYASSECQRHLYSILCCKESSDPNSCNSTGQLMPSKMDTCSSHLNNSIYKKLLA
The assay is described as follows: FRET or BRET; BRET in live COS7 cells; RGS4-Luc donor, PAR1-Ven acceptor; untagged Gαo (0.5 µg) co-transfected; absence and presence of 30 µM TFLLR. (In general: Bioluminescence resonance energy transfer reports proximity on the nanometre scale.)

Sequences of proteins named here, by UniProt entry; tags and fusion partners are left off.
UniProt P50148: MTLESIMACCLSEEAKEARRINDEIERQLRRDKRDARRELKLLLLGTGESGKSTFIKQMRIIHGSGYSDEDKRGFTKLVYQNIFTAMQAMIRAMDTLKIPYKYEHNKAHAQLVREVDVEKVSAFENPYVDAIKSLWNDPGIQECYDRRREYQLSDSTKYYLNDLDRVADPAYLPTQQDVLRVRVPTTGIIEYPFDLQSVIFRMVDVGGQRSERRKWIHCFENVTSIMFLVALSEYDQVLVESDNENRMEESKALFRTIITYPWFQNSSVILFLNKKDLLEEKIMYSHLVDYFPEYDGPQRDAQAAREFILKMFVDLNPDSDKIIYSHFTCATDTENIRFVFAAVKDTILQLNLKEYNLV
UniProt P63092: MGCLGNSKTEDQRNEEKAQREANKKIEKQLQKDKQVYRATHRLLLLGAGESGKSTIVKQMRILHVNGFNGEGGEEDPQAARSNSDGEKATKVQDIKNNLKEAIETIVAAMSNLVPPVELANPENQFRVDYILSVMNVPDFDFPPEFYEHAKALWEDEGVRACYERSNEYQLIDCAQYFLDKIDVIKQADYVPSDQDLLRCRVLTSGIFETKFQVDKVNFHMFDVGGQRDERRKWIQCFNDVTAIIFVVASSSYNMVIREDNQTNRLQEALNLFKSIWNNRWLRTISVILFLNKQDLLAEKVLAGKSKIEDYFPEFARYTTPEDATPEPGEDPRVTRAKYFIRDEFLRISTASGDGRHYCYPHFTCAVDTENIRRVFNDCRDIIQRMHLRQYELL
UniProt P49798: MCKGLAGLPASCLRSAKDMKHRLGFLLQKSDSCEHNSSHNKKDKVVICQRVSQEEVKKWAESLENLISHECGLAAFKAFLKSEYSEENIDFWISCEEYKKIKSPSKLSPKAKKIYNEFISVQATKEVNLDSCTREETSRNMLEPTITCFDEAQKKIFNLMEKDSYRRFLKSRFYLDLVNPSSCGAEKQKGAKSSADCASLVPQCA

In assay [2] the target is T1, PAR1-Venus (mouse). The experiment in a line: FRET or BRET; BRET in live COS7 cells; fixed RGS-Luc donor, PAR1-Ven acceptor (increasing or fixed amount); no Gα co-transfected; absence and presence of 30 µM TFLLR; Tyrode's solution, coelenterazine H 5 µM.
For assay [3], the target named is Gαq-YFP (UniProt P50148). The experiment in a line: FRET or BRET; BRET in live COS7 cells; RGS2-Luc (35 ng) donor, Gα-YFP (0.75 µg) acceptor; without PAR1-FLAG and TFLLR.
In assay [4] the target is Gαs-YFP (UniProt P63092). The description is as above.
Assay [5] deals with T1, PAR1-Venus (mouse). The experiment in a line: FRET or BRET; BRET in live COS7 cells; RGS2-Luc donor, PAR1-Ven acceptor; untagged Gαq or Gα11 (0.5 µg) co-transfected; absence and presence of 30 µM TFLLR.
For assay [6], the target named is T2, PAR1^R205A-Venus (mouse) (UniProt P30558).
T2 sequence: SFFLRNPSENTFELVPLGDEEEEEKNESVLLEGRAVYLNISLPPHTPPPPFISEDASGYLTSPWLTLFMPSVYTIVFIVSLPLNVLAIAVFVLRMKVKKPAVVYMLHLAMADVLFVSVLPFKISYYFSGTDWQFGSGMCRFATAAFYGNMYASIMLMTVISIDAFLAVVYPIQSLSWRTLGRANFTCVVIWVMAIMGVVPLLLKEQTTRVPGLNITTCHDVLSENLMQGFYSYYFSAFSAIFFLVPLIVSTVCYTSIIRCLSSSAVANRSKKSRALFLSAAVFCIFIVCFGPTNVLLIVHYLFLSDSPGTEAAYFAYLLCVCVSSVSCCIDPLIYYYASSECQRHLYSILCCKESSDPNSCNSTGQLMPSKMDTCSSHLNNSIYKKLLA
The assay is described as above.

Assay [7] addresses Gαq-YFP (UniProt P50148). The experiment in a line: FRET or BRET; BRET in live COS7 cells; RGS2-Luc (35 ng) donor, Gα-YFP (0.75 µg) acceptor; 0.5 µg PAR1-FLAG co-transfected; absence and presence of 30 µM TFLLR.
The target in assay [8] is Gαs-YFP (UniProt P63092). The description is as above.
Assay [9] addresses T2, PAR1^R205A-Venus (mouse). The experiment in a line: FRET or BRET; BRET in live COS7 cells; fixed RGS-Luc donor, PAR1-Ven acceptor (increasing or fixed amount); no Gα co-transfected; absence and presence of 30 µM TFLLR; Tyrode's solution, coelenterazine H 5 µM.

No constants are given. Whether binding was seen depends on the method and setting. In cells and extracts the contact can be indirect. Some binding calls cover weakened binding; strength is not graded here. For some assays here: Sequences can lack the tags named with a protein.

“RGS4-Luciferase (from UniProt P49798 1-205)”: the results for the binding result in assay [1] and in assay [2] were “binds” and “binds weakly”, respectively.

B1: RGS14-Luciferase (protein, UniProt O08773 1-544)
chain: MPGKPKHLGVPNGRMVLAVSDGELTSTSGSQAQGEGRGSSLSIHSLPSGPSSPFSTDEQPVASWAQSFERLLQDPRGLAYFTEFLKKEFSAENVTFWQACERFQQIPASDTKQLAQEAHNIYHEFLSSQALSPVNIDRQAWLSEEVLAQPRPDMFRAQQLQIFNLMKFDSYARFVKSPLYQECLLAEAEGRPLREPGSSHLGSPDTARKKPKLKPGKSLPLGVEELGQLPLAEGRPLRKSFRREMPGGAVNSALRRESQGSLNSSASLDLGFLAFVSSKSESHRKSLGSGEGESESRPGKYCCVYLPDGTASLALARPGLTIRDMLAGICEKRGLSLPDIKVYLVGKEQKALVLDQDCTVLADQEVRLENRITFQLELVGLERVVRISAKPTKRLQEALQPILAKHGLSLDQVVLHRPGEKQLVDLENLVSSVASQTLVLDTLPDAKTREASSIPPCRSQGCLPRTQTKDSHLPPLSSSLSVEDASGSTGKRQTCDIEGLVELLNRVQSSGAHDQRGLLRKEDLVLPEFLQLPSQRPGSQEAPP
With B1, the binding result in assay [2] is recorded as “no binding”.

B2: RGS2-Luciferase (protein, UniProt P41220 1-211)
chain: MQSAMFLAVQHDCRPMDKSAGSGHKSEEKREKMKRTLLKDWKTRLSYFLQNSSTPGKPKTGKKSKQQAFIKPSPEEAQLWSEAFDELLASKYGLAAFRAFLKSEFCEENIEFWLACEDFKKTKSPQKLSSKARKIYTDFIEKEAPKEINIDFQTKTLIAQNIQEATSGCFTTAQKRVYSLMENNSYPRFLESEFYQDLCKKPQITTEPHAT
As for B2, the binding entry in [3] is recorded as “binds weakly”; in assay [4], “no binding”; in assay [5], “binds”; in assay [6] it was “binds weakly”; in assay [7], “binds”; in [8], “no binding”. In addition, the binding entry in assay [2] and in assay [9] was “binds weakly” in each case.
